Assay in all cases: co-IP; lysates of differentiated Neuro2a cells expressing GFP-JIP1 constructs or GFP alone, immunoprecipitated with anti-GFP antibody, western blot of endogenous kinesin-1 (KHC), JNK and JIP3; 4 C, 150 mM NaCl, 20 mM Hepes pH 7.5, 0.5% Triton X-100
A general note: Immunoblotting shows a protein as a band on a membrane.

One assay addresses T1, GFP-JIP1-F642V (mouse) (UniProt Q9WVI9).
T1 sequence: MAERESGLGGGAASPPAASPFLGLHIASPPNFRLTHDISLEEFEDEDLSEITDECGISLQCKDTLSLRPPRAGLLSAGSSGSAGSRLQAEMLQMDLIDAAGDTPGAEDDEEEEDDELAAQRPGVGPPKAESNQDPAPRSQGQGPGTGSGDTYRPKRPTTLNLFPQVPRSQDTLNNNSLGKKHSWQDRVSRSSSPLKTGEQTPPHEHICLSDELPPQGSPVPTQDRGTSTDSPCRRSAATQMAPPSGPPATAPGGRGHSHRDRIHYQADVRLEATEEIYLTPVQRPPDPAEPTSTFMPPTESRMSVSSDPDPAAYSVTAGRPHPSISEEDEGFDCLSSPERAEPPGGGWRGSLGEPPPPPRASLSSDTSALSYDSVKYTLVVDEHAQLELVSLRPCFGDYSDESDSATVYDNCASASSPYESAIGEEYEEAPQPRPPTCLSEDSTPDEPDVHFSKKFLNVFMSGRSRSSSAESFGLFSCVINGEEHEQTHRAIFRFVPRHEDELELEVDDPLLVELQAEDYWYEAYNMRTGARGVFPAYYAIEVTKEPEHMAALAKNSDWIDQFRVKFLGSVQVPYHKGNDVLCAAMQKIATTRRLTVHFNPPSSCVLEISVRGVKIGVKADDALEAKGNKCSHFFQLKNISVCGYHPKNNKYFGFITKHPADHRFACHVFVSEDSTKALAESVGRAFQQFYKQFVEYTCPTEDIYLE

The next assay concerns the target T2, GFP-JIP1-V581A (mouse) (UniProt Q9WVI9).
T2 sequence: T1 sequence with V581A, V642F

Another assay addresses T3, GFP-JIP1-dCT (mouse) (UniProt Q9WVI9).
T3 sequence: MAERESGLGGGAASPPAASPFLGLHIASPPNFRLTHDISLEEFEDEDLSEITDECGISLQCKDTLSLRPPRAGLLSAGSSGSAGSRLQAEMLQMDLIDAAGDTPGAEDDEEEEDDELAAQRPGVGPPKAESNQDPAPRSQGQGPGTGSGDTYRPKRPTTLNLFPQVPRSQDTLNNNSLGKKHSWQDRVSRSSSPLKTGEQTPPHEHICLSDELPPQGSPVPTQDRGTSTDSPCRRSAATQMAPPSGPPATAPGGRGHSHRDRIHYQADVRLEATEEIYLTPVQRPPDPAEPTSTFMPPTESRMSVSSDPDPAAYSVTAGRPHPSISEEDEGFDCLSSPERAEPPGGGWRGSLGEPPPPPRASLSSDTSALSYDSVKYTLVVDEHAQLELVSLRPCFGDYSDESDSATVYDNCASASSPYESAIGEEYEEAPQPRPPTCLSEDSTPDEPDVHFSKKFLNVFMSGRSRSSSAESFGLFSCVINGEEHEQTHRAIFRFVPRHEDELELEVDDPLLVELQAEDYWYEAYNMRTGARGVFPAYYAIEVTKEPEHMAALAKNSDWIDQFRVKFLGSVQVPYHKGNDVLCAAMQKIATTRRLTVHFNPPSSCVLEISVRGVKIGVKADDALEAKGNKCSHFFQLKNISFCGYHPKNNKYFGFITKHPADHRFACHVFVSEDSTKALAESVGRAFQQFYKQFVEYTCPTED

Changes are numbered by the printed parent chain. No constants are given. Whether binding was seen depends on the method and setting. In cells and extracts the contact can be indirect. Some results given as binding are weak or reduced against the parent protein; the word gives no strength. Where a sequence is shown, tags or fusion partners need not be part of it.

We go through one molecule from PMC3599065.

B1: JIP3 (endogenous, Neuro2a) (protein, UniProt Q9ESN9 1-1337)
chain: MMEIQMDEGGGVVVYQDDYCSGSVMSERVSGLAGSIYREFERLIHCYDEEVVKELMPLVVNVLENLDSVLSENQEHEVELELLREDNEQLLTQYEREKALRKQAEEKFIEFEDALEQEKKELQIQVEHYEFQTRQLELKAKNYADQISRLEERESEMKKEYNALHQRHTEMIQTYVEHIERSKMQQVGGSGQTESSLPGRSRKERPTSLNVFPLADGMVRAQMGGKLVPAGDHWHLSDLGQLQSSSSYQCPNDEMSESGQSSAAATPSTTGTKSNTPTSSVPSAAVTPLNESLQPLGDYVSVTKNNKQAREKRNSRNMEVQVTQEMRNVSIGMGSSDEWSDVQDIIDSTPELDVCPETRLERTGSSPTQGIVNKAFGINTDSLYHELSTAGSEVIGDVDEGADLLGEFSVRDDFFGMGKEVGNLLLENSQLLETKNALNVVKNDLIAKVDQLSGEQEVLKGELEAAKQAKVKLENRIKELEEELKRVKSEAVTARREPREEVEDVSSYLCTELDKIPMAQRRRFTRVEMARVLMERNQYKERLMELQEAVRWTEMIRASREHPSVQEKKKSTIWQFFSRLFSSSSSPPPAKRSYPSVNIHYKSPTAAGFSQRRSHALCQISAGSRPLEFFPDDDCTSSARREQKREQYRQVREHVRNDDGRLQACGWSLPAKYKQLSPNGGQEDTRMKNVPVPVYCRPLVEKDPSTKLWCAAGVNLSGWKPHEEDSSNGPKPVPGRDPLTCDREGEGEPKSTHPSPEKKKAKETPEADATSSRVWILTSTLTTSKVVIIDANQPGTIVDQFTVCNAHVLCISSIPAASDSDYPPGEMFLDSDVNPEDSGADGVLAGITLVGCATRCNVPRSNCSSRGDTPVLDKGQGDVATTANGKVNPSQSTEEATEATEVPDPGPSESEATTVRPGPLTEHVFTDPAPTPSSSTQPASENGSESNGTIVQPQVEPSGELSTTTSSAAPTMWLGAQNGWLYVHSAVANWKKCLHSIKLKDSVLSLVHVKGRVLVALADGTLAIFHRGEDGQWDLSNYHLMDLGHPHHSIRCMAVVNDRVWCGYKNKVHVIQPKTMQIEKSFDAHPRRESQVRQLAWIGDGVWVSIRLDSTLRLYHAHTHQHLQDVDIEPYVSKMLGTGKLGFSFVRITALLIAGNRLWVGTGNGVVISIPLTETVVLHRGQLLGLRANKTSPTSGEGTRPGGIIHVYGDDSSDKAASSFIPYCSMAQAQLCFHGHRDAVKFFVSVPGNVLATLNGSVLDSPSEGPGPAAPAADAEGQKLKNALVLSGGEGYIDFRIGDGEDDETEECAGDVNQTKPSLSKAERSHIIVWQVSYTPE
As for B1, the binding result with GFP-JIP1-F642V (mouse) is reported as “no binding”; in the assay with GFP-JIP1-V581A (mouse) it was “no binding”; with GFP-JIP1-dCT (mouse), “binds”.
